Holding throughout (experiment): co-IP; HEK293T cells transfected with EGFP-tagged constructs; GFP-TRAP beads; lysis in 10 mM Tris-HCl (pH 7.5), 150 mM NaCl, 0.5 mM EDTA, 0.5% NP-40; immunoblot for endogenous subunits
In general terms: Immunoblotting shows a protein as a band on a membrane.

Assay [1] concerns the target T1, EGFP-tagged VPS41 N-terminal construct (residues 1–777) (human) (UniProt P49754).
T1 sequence: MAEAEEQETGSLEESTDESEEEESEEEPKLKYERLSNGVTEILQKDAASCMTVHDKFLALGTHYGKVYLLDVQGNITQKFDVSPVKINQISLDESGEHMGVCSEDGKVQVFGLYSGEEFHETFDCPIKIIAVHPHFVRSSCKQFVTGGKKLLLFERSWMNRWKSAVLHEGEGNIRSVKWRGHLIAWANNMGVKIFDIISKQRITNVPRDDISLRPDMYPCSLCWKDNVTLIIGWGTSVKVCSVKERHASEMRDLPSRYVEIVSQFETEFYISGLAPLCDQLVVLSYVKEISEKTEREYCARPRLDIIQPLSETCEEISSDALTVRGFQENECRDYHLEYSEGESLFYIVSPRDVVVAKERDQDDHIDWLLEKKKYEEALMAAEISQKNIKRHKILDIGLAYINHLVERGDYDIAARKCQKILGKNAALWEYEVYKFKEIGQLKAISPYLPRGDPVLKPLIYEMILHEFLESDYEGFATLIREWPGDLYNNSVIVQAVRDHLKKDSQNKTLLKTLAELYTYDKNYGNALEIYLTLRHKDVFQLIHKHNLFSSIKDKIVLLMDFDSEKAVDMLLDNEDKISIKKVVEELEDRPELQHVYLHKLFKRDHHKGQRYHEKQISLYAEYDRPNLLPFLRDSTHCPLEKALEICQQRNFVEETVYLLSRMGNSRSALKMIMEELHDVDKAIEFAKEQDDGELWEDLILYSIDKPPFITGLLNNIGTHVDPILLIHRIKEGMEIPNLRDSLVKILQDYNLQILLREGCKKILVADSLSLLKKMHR

The target in assay [2] is T2, EGFP-tagged VPS8 RING long construct (human) (UniProt Q8N3P4).
T2 sequence: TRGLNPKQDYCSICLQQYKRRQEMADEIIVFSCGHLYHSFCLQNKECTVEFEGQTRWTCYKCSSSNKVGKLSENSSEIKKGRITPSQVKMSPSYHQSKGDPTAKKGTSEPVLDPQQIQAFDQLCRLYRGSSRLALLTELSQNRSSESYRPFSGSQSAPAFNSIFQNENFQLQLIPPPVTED

Assay [3] concerns the target T3, EGFP-tagged VPS8 RING short construct (human) (UniProt Q8N3P4).
T3 sequence: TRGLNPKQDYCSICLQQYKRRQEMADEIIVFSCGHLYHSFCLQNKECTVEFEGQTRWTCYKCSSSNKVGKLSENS

No constants are given. Whether binding was seen depends on the method and setting. Binding seen in cells or lysates may run through a third protein. Some results given as binding are weak or reduced against the parent protein; the word gives no strength. Tags and fused reporters may be left off the sequences shown.

B1: endogenous VPS33A (protein, UniProt Q96AX1 1-596)
chain: MAAHLSYGRVNLNVLREAVRRELREFLDKCAGSKAIVWDEYLTGPFGLIAQYSLLKEHEVEKMFTLKGNRLPAADVKNIIFFVRPRLELMDIIAENVLSEDRRGPTRDFHILFVPRRSLLCEQRLKDLGVLGSFIHREEYSLDLIPFDGDLLSMESEGAFKECYLEGDQTSLYHAAKGLMTLQALYGTIPQIFGKGECARQVANMMIRMKREFTGSQNSIFPVFDNLLLLDRNVDLLTPLATQLTYEGLIDEIYGIQNSYVKLPPEKFAPKKQGDGGKDLPTEAKKLQLNSAEELYAEIRDKNFNAVGSVLSKKAKIISAAFEERHNAKTVGEIKQFVSQLPHMQAARGSLANHTSIAELIKDVTTSEDFFDKLTVEQEFMSGIDTDKVNNYIEDCIAQKHSLIKVLRLVCLQSVCNSGLKQKVLDYYKREILQTYGYEHILTLHNLEKAGLLKPQTGGRNNYPTIRKTLRLWMDDVNEQNPTDISYVYSGYAPLSVRLAQLLSRPGWRSIEEVLRILPGPHFEERQPLPTGLQKKRQPGENRVTLIFFLGGVTFAEIAALRFLSQLEDGGTEYVIATTKLMNGTSWIEALMEKPF
As for B1, the binding result in assay [1], in assay [2] and in assay [3] was “no binding” in each case.

B2: endogenous VPS11 (protein, UniProt Q9H270 1-941)
chain: MAAYLQWRRFVFFDKELVKEPLSNDGAAPGATPASGSAASKFLCLPPGITVCDSGRGSLVFGDMEGQIWFLPRSLQLTGFQAYKLRVTHLYQLKQHNILASVGEDEEGINPLVKIWNLEKRDGGNPLCTRIFPAIPGTEPTVVSCLTVHENLNFMAIGFTDGSVTLNKGDITRDRHSKTQILHKGNYPVTGLAFRQAGKTTHLFVVTTENVQSYIVSGKDYPRVELDTHGCGLRCSALSDPSQDLQFIVAGDECVYLYQPDERGPCFAFEGHKLIAHWFRGYLIIVSRDRKVSPKSEFTSRDSQSSDKQILNIYDLCNKFIAYSTVFEDVVDVLAEWGSLYVLTRDGRVHALQEKDTQTKLEMLFKKNLFEMAINLAKSQHLDSDGLAQIFMQYGDHLYSKGNHDGAVQQYIRTIGKLEPSYVIRKFLDAQRIHNLTAYLQTLHRQSLANADHTTLLLNCYTKLKDSSKLEEFIKKKSESEVHFDVETAIKVLRQAGYYSHALYLAENHAHHEWYLKIQLEDIKNYQEALRYIGKLPFEQAESNMKRYGKILMHHIPEQTTQLLKGLCTDYRPSLEGRSDREAPGCRANSEEFIPIFANNPRELKAFLEHMSEVQPDSPQGIYDTLLELRLQNWAHEKDPQVKEKLHAEAISLLKSGRFCDVFDKALVLCQMHDFQDGVLYLYEQGKLFQQIMHYHMQHEQYRQVISVCERHGEQDPSLWEQALSYFARKEEDCKEYVAAVLKHIENKNLMPPLLVVQTLAHNSTATLSVIRDYLVQKLQKQSQQIAQDELRVRRYREETTRIRQEIQELKASPKIFQKTKCSICNSALELPSVHFLCGHSFHQHCFESYSESDADCPTCLPENRKVMDMIRAQEQKRDLHDQFQHQLKCSNDSFSVIADYFGRGVFNKLTLLTDPPTARLTSSLEAGLQRDLLMHSRRGT
Regarding B2, the binding result in assay [1] is recorded as “no binding”; in assay [2], “binds”; in assay [3], “no binding”.
